# Experimental data: the supplement of paper PMC5499739
# Whole data set: some 16,000 sequences, median “Z-score” near -0.37, cut for the highest 2% near 3.1. Some of the results follow.
# System: RBM10 RRM1-ZnF-RRM2 (GST-tagged construct)
# Assay: RNAcompete 7-mer binding Z-score; higher = stronger binding preference
# In short: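 GST-tagged RBM10 constructs (20 pmol) and a designed pool of 241 399 RNAs up to 41 nt (1.5 nmol) were allowed to bind for 30 min at 4°C in 1 ml Hepes pH 7.8 buffer with glutathione Sepharose beads. After four 2-min washes at 4°C, bound RNA was identified by microarray hybridisation. Enrichment was scored per heptamer motif as a one-sided Z-score across the probes containing it.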
row,Sequence,RNAcompete 7-mer binding Z-score
1,CACCUCC,-0.657
2,UCACUCC,-0.766
3,AAUAUCA,-0.322
4,UCGGGAU,1.08
5,CAAAUUU,-0.708
6,ACUAUGC,-0.683
7,GGGCGAU,1.75
8,CGUUCCA,-0.73
9,CAAUAAA,-0.497
10,CUUACAU,-0.843
11,AGCCCCU,-0.646
12,ACUUGUU,-0.919
13,UCAAGGC,0.202
14,GAAGUCU,-0.588
15,UCCUGGC,-0.752
16,CAGAGGG,2.33
17,CAGAUGU,-0.0452
18,CGGUGGA,2.27
19,CUUUUGG,-0.482
20,AUAACCG,-0.653
21,GGCCGAA,-0.136
22,UCUAUUU,-0.81
23,ACGGGCA,1.87
24,GUCGAUU,-0.271

row,Sequence,RNAcompete 7-mer binding Z-score
1,AACACGG,0.654
2,CGUGUAG,0.61
3,CCUUUGU,-0.887
4,UCCGGUG,0.0896
5,GCGCCCC,-0.369
6,GACUUAC,-0.81
7,CUGCCAU,-0.923
8,AUGUAUC,-0.468
9,CGAUUUA,-0.704
10,GGCGUAC,0.607
11,UAGAGUA,0.621
12,CACCUGA,-0.799
13,UGUGAUU,-0.544
14,ACCCGUG,-0.588
15,AUGGUCU,-0.369
16,GGGGGGU,3.13
17,UCCUCUA,-0.836
18,GAUCAGU,0.246
19,CUGGCUC,-0.726
20,GGCCUCU,-0.799
21,UGCUGGC,-0.0707
22,GUUCAGA,-0.0853
23,AAUCGGC,-0.216
24,ACUCCCA,-0.996

row,Sequence,RNAcompete 7-mer binding Z-score
1,GACUCGU,-0.653
2,GCGGGGU,3.77
3,GGACACC,0.665
4,UCAUAGC,-0.73
5,ACCUGAA,-0.785
6,CAAAAGU,-0.333
7,GGUGCGC,1.5
8,CCUGGUC,-0.621
9,UCAAAUC,-0.741
10,UUUACGG,-0.282
11,AUAUGGC,0.428
12,GCAAACA,0.192
13,UCGGACU,-0.406
14,AGGCGGG,2.73
15,AAUCCAC,-0.551
16,GACACCU,-0.868
17,CUCAUGU,-0.77
18,AACCUUU,-0.861
19,CUGGUUA,-0.165
20,AUAACCC,-0.599
21,CCCUACG,-0.712
22,AAAACUA,-0.34
23,GUUGCGA,0.224
24,GCCGAUC,-0.744

row,Sequence,RNAcompete 7-mer binding Z-score
1,UGUCCCA,-0.515
2,GAUUAGA,0.257
3,UGGGAUU,1.63
4,CGGGAAG,2.07
5,GCCAGGA,0.625
6,CCAGUUA,-0.683
7,CACCGAA,-0.595
8,UUGGCUU,-0.606
9,AGCGGCA,1
10,CGUACAC,-0.482
11,GGGAUAG,3.83
12,GCUAAUA,-0.282
13,UUCGUAC,-0.5
14,ACCCUGC,-0.927
15,AACAUCU,-0.748
16,AAGUCGG,0.796
17,UUCCUGG,-0.515
18,GGAGUCU,0.388
19,AGCAACG,0.359
20,ACACCCU,-0.941
21,UGUCUGG,-0.0853
22,CUCCUCU,-0.704
23,CCAUAUA,-0.632
24,ACAGACC,-0.635

row,Sequence,RNAcompete 7-mer binding Z-score
1,UUGAUGU,-0.347
2,CCAUUAC,-0.715
3,UUGUGCC,-0.628
4,GACUUAG,-0.267
5,UUACGAU,-0.439
6,UGUCGAG,0.024
7,GAGAAAA,0.519
8,CCUUUGG,-0.592
9,CUGCACU,-0.672
10,GAAUGCG,0.545
11,CGCAGCU,-0.61
12,UUCGCUG,-0.799
13,UACUAAA,-0.599
14,GUCUGCC,-0.646
15,GUUAAUG,0.636
16,AGCAGUC,-0.169
17,GAUAUAC,-0.202
18,UUUAUCG,-0.668
19,CUUUAAG,-0.887
20,UGAACAC,-0.428
21,UUUUAAA,-0.741
